“And” between values parts separate entries of the source, which are not always exact repeats. Identical values can stand only once.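 Cells were grown in 96-well plates and exposed to each compound for 48 hours at five concentrations; endpoints were interpolated linearly between bracketing concentrations, or set to the highest concentration if not reached. The concentration for 50% growth inhibition is given as GI50. The concentration for full growth arrest is given as TGI.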

The TGI is the concentration giving total growth inhibition. A lower TGI goes with more potent growth arrest. A word on the GI50: it is the concentration at which growth is held to half of that of the control.

The experiment concerns NCI-H322M lung. Nature of the experiment: DTP human tumour cell line panel, 48 h.
In the case of `CN(C(=O)C12C3C4C5C3C1(C(=O)C13C6C7C8C6C1C8C73)C5C42)C(C)(C)C` (stereo not given), the total growth inhibition concentration (TGI) is greater than 50 µM.
The same measure, in the same setting: with `O=C1c2cc(Cl)ccc2NC(=NC2CCCC2)C2CSCN12` (stereo not given) the figure was greater than 100 µM.
Consider `COc1ccc(S(=O)(=O)N2CCN(C(=O)c3ccc(-c4ccccc4)cc3)CC2C(=O)NO)cc1` (stereo not given), for which the GI50 is 2.97 µM and 19.9 µM; the total growth inhibition concentration (TGI) is 12.5 µM and > 100 µM.
`Cc1ncc(C(=O)Nc2ccc(CN3CCN(C)CC3)c(C(F)(F)F)c2)cc1C#Cc1cnc2cccnn12`: the GI50 was 0.6 µM and the TGI turned out to be 3.14 µM.
As to `Cc1ccc(/C=N/n2c(-c3ccc(C)cc3)n[nH]c2=O)cc1`, the TGI is greater than 100 µM.
Same read-out and setting: the result for `CCN1CCC(O)(c2ccc(Oc3ccc(F)cc3)cc2)C(C(=O)c2ccc(Oc3ccc(F)cc3)cc2)C1` (stereo not given) reads 29.7 µM; that for `[N-]=[N+]=NC(c1cn(C2CC(O)C(CO)O2)c(=O)[nH]c1=O)C(Br)Br` (stereo not given), greater than 100 µM.
As for `CC(C)c1c(-c2ccccc2)nc2c(C#N)c[nH]n2c1=O`, the GI50 is 33.8 µM and the total growth inhibition concentration (TGI) is greater than 100 µM.
On to `O=C1CC2C(=O)c3ccccc3CC2c2ccccc21` (stereo not given), for which the TGI was greater than 100 µM.
Same read-out and setting: the result for `NC1=C(NC(=O)Cc2ccccc2F)C(=O)c2ccccc2C1=O` reads greater than 100 µM.
`COc1cc2ncn(-c3cc(OCc4ccccc4C(F)(F)F)c(C(=O)N(C)C)s3)c2cc1OC`: the GI50 is greater than 25 µM and the concentration for total growth inhibition (TGI) is greater than 25 µM.
As for `c1cc2c(s1)-c1sccc1C21OCCO1`, the TGI is greater than 100 µM.
Molecule `CC(=O)N/N=C1\CC(C)(C)C2CCC1C2` (stereo not given) yielded a TGI greater than 100 µM.
Take `O=S(=O)(O)c1cc(N=Nc2c(O)ccc3ccccc23)ccc1/C=C/c1ccc(N=Nc2c(O)ccc3ccccc23)cc1S(=O)(=O)O`: the TGI is greater than 100 µM.
Regarding `Cn1c(C(=O)c2ccncc2)cc2ccccc21`, the GI50 is greater than 100 µM and the total growth inhibition concentration (TGI) is greater than 100 µM.
Turning to `OC1(c2ccc(-c3ccccc3)cc2)c2ccccc2C2=NCCN21` (stereo not given), the TGI is greater than 100 µM.
On the same count and under the same terms, the result for `COc1ccc2nc(-c3ccccc3)cc(OCC(=O)O)c2c1` reads greater than 100 µM; that for `COC(CN(C(C)=O)C1CCC2(SCCS2)c2[nH]c3ccccc3c21)OC` (stereo not given), greater than 100 µM.
On the same count and under the same terms, the result for `CC1=Nc2c(ccc3c2C(=O)c2ccccc2C3=O)NC(c2cccc3c2CCC3)C1` (stereo not given) reads greater than 83.6 µM.
Molecule `O=S(=O)(Nc1nc2ccccc2nc1Nc1ccc2ccccc2c1)c1ccccc1` registered a concentration for total growth inhibition (TGI) greater than 100 µM.
Turning to `C=C1C(=O)O[C@H]2C[C@@]3(COC(C)=O)C=COC=C(COC(=O)C(C)C)C3CC12` (stereo not given in full), the concentration for total growth inhibition (TGI) was greater than 100 µM.
Take `Nc1ccccc1C#C/C=C\C#Cc1ccc(OCCCNC(=O)c2cc3ccccc3[nH]2)cc1`: the GI50 was 16 µM and the TGI was determined as 91.2 µM.
As for `Clc1ccc(C(c2ccccc2Cl)C(Cl)Cl)cc1` (stereo not given), the TGI was determined as 37.4 µM.
Same read-out and setting: with `CCC1(N=[N+]=[N-])C(=O)c2ccccc2N(C)C1=O` (stereo not given) the figure was greater than 100 µM.
For `S=c1snc2n1CCN2`, the GI50 is greater than 100 µM and the TGI was greater than 100 µM.
Regarding `O=C1c2ccccc2-[n+]2ccc3c([nH]c4ccccc43)c21`, the concentration for total growth inhibition (TGI) was 1.82 µM.
Still for that read-out and setting: the result for `CSc1ccc(-c2cc(-c3nc4ccccc4[nH]3)no2)cc1` reads greater than 100 µM.
Regarding `CCCCCCCCOC(=O)CC[C@@H](C)[C@H]1CC[C@H]2[C@@H]3[C@H](OC(=O)CCN)C[C@@H]4C[C@H](OC(=O)CCN)CC[C@]4(C)[C@H]3C[C@H](OC(=O)CCN)[C@]12C`, the GI50 is 3.98 µM and the TGI was 12 µM.
In turn, `[N-]=[N+]=NC1OC(=O)C(Cl)=C1N=P(c1ccccc1)(c1ccccc1)c1ccccc1` (stereo not given) showed a total growth inhibition concentration (TGI) greater than 10 µM.
For `CCC[CH2][Sn]([Cl])([Cl])[CH2]CCC`, the GI50 was 1.69 µM and the TGI is 3.22 µM.
Molecule `NC(=O)N/N=C(/CC1C(=O)Oc2ccccc21)c1ccccc1O` (stereo not given) came in with a TGI greater than 100 µM.
Take `C=CCn1c(C)nc2ccc(Nc3nc(Nc4ccc(F)cc4)nc4ccccc34)cc21`: the GI50 is 6.16 µM and the TGI stood at 21.5 µM.
Molecule `[O-][N+](=Nc1ccccc1CO)c1ccccc1CO` registered a TGI greater than 100 µM.
In the case of `O=C(O)c1ccc(NCn2nc(-c3ccccc3O)oc2=S)cc1`, the GI50 was greater than 100 µM and the TGI was greater than 100 µM.
For `O=C1/C(=C/c2cccc(Br)c2)COc2ccc(O)cc21`, the GI50 is 12.3 µM and the TGI came out at 24.8 µM.
On to `Cc1cc2/c(=C\c3ccc(N(C)C)cc3)c3ccccc3n2[n+]1C`, for which the TGI was found to be 5.2 µM.
On the same count and under the same terms, with `CC(C)(C)c1cc(C(O)(C(F)(F)F)C(F)(F)F)c2c(c1)C(C(F)(F)F)(C(F)(F)F)OC(C)(C(C)(C)C)N2` (stereo not given) the figure was 40.3 µM; with `CO/N=C(/C)c1cccc(Nc2nc3ccccc3c3[nH]c4ccccc4c23)c1`, 8.11 µM.
`C=C1C(=O)OC2C/C(C)=C/CC/C(C)=C/CCC3(COC(C)=O)OC3CC12` (stereo not given) had a concentration for total growth inhibition (TGI) of 30 µM.
On the same count and under the same terms, with `O=C(Cc1nc2ccccc2c(=O)n1-c1ccccc1Cl)c1ccncc1` the figure was greater than 100 µM.
Turning to `C#C/C=C\CCCC/C=C\C#CC#CCCCC#CC#C[C@H](COS(=O)(=O)O)OS(=O)(=O)O`, the total growth inhibition concentration (TGI) is greater than 100 µM.
Still for that read-out and setting: the result for `Cc1ccc(SC2C(=O)C3CC(OCc4ccccc4)C2(C)C3(C)C)cc1` (stereo not given) reads greater than 100 µM.
Take `NS(=O)(=O)c1ccc(-n2nc3c(c2-c2ccc(Cl)cc2)Cc2ccccc2-3)cc1`: the GI50 is 27.9 µM and the TGI turned out to be 88.2 µM.
`COC(=O)C1C(O)CCC2CN3CCc4c([nH]c5ccccc45)C3CC21` (stereo not given) registered a concentration for total growth inhibition (TGI) greater than 100 µM.
On to `COc1ccc2c(=O)cc(-c3ccccc3)[nH]c2c1`, for which the GI50 is 0.463 µM and the TGI is greater than 100 µM.
Turning to `Nc1nc(Cl)c(N)c(NCC2(CO)CC2)n1`, the concentration for total growth inhibition (TGI) was greater than 100 µM.
Consider `O=C(/C=C/c1ccccc1)C(Br)C(Br)c1ccccc1` (stereo not given), for which the GI50 was 12.3 µM and the concentration for total growth inhibition (TGI) was determined as 24.8 µM.
As to `CCN(CC)CCCNc1ccc2nc(C)n3c4ccc(O)cc4c(=O)c1c23`, the concentration for total growth inhibition (TGI) is 17 µM.
On the same count and under the same terms, with `COc1cc(C2SCCCCCCCCCCSC(c3ccc(O)c(OC)c3)SCCCCCCCCCCS2)ccc1O` (stereo not given) the figure was greater than 100 µM; with `O=C1CC(c2ccccc2)C2(C(=O)NC(=S)NC2=O)C(c2ccccc2)C1` (stereo not given), greater than 75 µM.
In the case of `CN(CCCCCl)P(=O)(OCCS(=O)(=O)CC(NC(=O)CCC(N)C(=O)O)C(=O)NC(C(=O)O)c1ccccc1)OCC1OC(n2ccc(N)nc2=O)C(F)(F)C1O` (stereo not given), the GI50 is 4.03 µM and the TGI is greater than 100 µM.
The molecule `Cn1c2ccccc2c2c3c(c4c5ccccc5n(C)c4c21)C(=O)NC3=O` gave a TGI greater than 100 µM.
`CCOC(=O)C1=C(Nc2ccc(Cl)cc2Cl)OCC1=O` showed a TGI greater than 100 µM.
Molecule `CCOC(=O)c1nnsc1N/N=C\c1ccc([N+](=O)[O-])cc1` gave a TGI greater than 100 µM.
Regarding `COc1ccc2cc(/C=C/C(=O)c3ccc(Cl)cc3Cl)ccc2c1`, the GI50 was 90.8 µM and the concentration for total growth inhibition (TGI) was greater than 100 µM.
Turning to `O=C1CC2CC3OC3[C@H]3c4cc5c(cc4C(=O)N1C23)OCO5` (stereo not given in full), the TGI is greater than 100 µM.
Consider `CCOC(=O)c1c(N=P(c2ccccc2)(c2ccccc2)c2ccccc2)nnc(-c2ccccc2)c1-c1ccccc1`, for which the concentration for total growth inhibition (TGI) was greater than 100 µM.
The same measure, in the same setting: the result for `CN(C(=O)Cc1ccccc1)n1cnn(CC(=O)OC(C)(C)C)c1=S` reads greater than 10 µM; that for `COC/C=C\COC`, greater than 100 µM.
Turning to `Cc1nn[n-]n1.N.N.N.N.N.[Cl-].[Co+3]`, the GI50 is greater than 100 µM and the concentration for total growth inhibition (TGI) was greater than 100 µM.
`CCNC(=O)COc1ccc(Br)cc1Br`: the TGI was greater than 100 µM.
On the same count and under the same terms, the result for `COc1cc(C(C)O)c(S(=O)(=O)CC(C)O)nn1` (stereo not given) reads greater than 100 µM.
For `CC(=O)c1c(C)nc(SSc2nc(C)c(C(C)=O)c(-c3ccc(Cl)cc3)c2C#N)c(C#N)c1-c1ccc(Cl)cc1`, the GI50 was 121 µg/mL and the TGI is greater than 150 µg/mL.
In the case of `CC1CCC2(NC1)OC1CC3C4CC=C5CC(O)CCC5(C)C4CCC3(C)C1C2C` (stereo not given), the GI50 is 28.3 µM and 5.83 µM; the concentration for total growth inhibition (TGI) was 85.3 µM and > 55.5 µM.
As for `O=C1C(Br)=C(c2ccccc2)O/C1=C/C(=O)c1ccc(Br)cc1`, the TGI is greater than 100 µM.
On the same count and under the same terms, the result for `CC[C@@]1(O)C(=O)OCc2c1cc1n(c2=O)Cc2c-1nc1ccccc1c2/C=N\NC(=O)C1CCCN1` (stereo not given in full) reads greater than 100 µM.
Turning to `COc1ccccc1C#Cc1ccccc1C#CCCCCO`, the GI50 is 22.9 µM and the TGI was determined as 54.4 µM.
In turn, `CCC1CC2C(=O)N(c3ccccc3)C(=O)C2c2[nH]c3ccccc3c21` (stereo not given) displayed a TGI greater than 100 µM.
In the case of `CCOC(=O)Nc1nc2ccc(OC)cc2s1`, the GI50 was greater than 100 µM and the TGI is greater than 100 µM.
Molecule `c1cc2c(cc1NC1=NCCO1)OCO2` returned a TGI greater than 100 µM.
Still for that read-out and setting: the result for `CCCCCCCCCCCCCCCCNC(=O)C(=O)/C=C(\O)c1ccc(C)cc1` reads greater than 10 µM.
`N/N=C1\C(=O)N(C2CCCCCC2)C(=O)C1C(=O)NC1CCCCCC1` (stereo not given) returned a total growth inhibition concentration (TGI) greater than 100 µM.
Take `NCCSSCCN`: the TGI was greater than 100 µM.
Still for that read-out and setting: the result for `COc1ccc(C2OC(=O)c3ccc4ccccc4c32)c(C)c1` (stereo not given) reads greater than 100 µM.
The molecule `Cc1c2ccncc2cc2c1[nH]c1ccccc12` yielded a TGI of 46.2 µM.
Consider `O=c1c2cc(F)ccc2sc2c(N3CCNCC3)nc3ccc(F)cc3c12`, for which the GI50 was 1.59 µM and the TGI was determined as 2.95 µM.
Regarding `Cc1c2c3ccccc3nc-2n(C)c2ccccc12`, the total growth inhibition concentration (TGI) came to 4.97 µM.
On to `CC(=O)c1ccc2c(c1)C1C=CCC1[C@H](c1cc3c(cc1Br)OCO3)N2` (stereo not given in full), for which the GI50 was 4.23 µM and the TGI is greater than 85.8 µM.
Molecule `COc1ccc(N=NC(C(=O)c2ccccc2)C(=O)c2ccccc2)cc1` had a concentration for total growth inhibition (TGI) of 75.8 µM.
Regarding `COc1cccc(/C(C#N)=C/c2nc3c(N4CCOCC4)nc(Cl)nc3n2C)c1`, the GI50 was 1.71 µM and the total growth inhibition concentration (TGI) amounted to 3.9 µM.
For the molecule `Cc1nc(CC#N)n[nH]1`, the TGI is greater than 100 µM.
The same measure, in the same setting: the result for `CC1=C(C(=O)CC(=O)C(=O)Nc2cc(C)ccc2C)Sc2ccccc2N1` reads greater than 100 µM.
The same measure, in the same setting: with `COc1ccc(-n2[nH]nc(C(N)=O)c2=O)cc1` the figure was greater than 100 µM.
`CCC(O)c1ccc(Br)cc1NC(=O)c1cccc(Cl)c1` (stereo not given): the GI50 is 22.5 µM and the total growth inhibition concentration (TGI) worked out at 55.6 µM.
For `O=C(NOC[C@H](O)CO)c1ccc(F)c(F)c1Nc1ccc(I)cc1F`, the 50% growth inhibitory concentration (GI50) is 0.178 µM and 0.0663 µM; the TGI is greater than 100 µM.
`CC1=CC(=O)CC2(C)CC[C@@H]3C[C@]12OC3(C)C` (stereo not given in full) had a TGI greater than 100 µM.
With `O=C(N/N=C/c1cc(Cl)cc(Cl)c1[O-])c1ccccc1O.O=C(N/N=C/c1cc(Cl)cc(Cl)c1[O-])c1ccccc1O.[Co+2]`, the GI50 was 0.861 µM and the TGI is 16 µM.

The values are drawn from PubChem BioAssay (NCI).
